From the supplement of paper PMC6531468
The other results are listed elsewhere or left out. These are enrichments in a pooled selection; single values are uncertain. Each score is taken over the longer molecules that contain the sequence shown.

Tests used:
Experiment in all cases: 6-mer SELEX enrichment z-score vs GST control; IMP3 is the RNA-binding protein IGF2BP3; higher = more enriched by binding
IMP3 KH1-4 = conditions: construct: KH1-4 (164-579); SELEX round: R4
Description: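 SELEX-seq with GST-tagged IMP3 KH1-4 (Pro164-Lys579) and an N40 RNA pool, round 4. 6-mer z-score of sequence-tag enrichment normalised to the corresponding GST SELEX round; RNA k-mers written as DNA (T for U).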

IMP3 RRM1-2 = conditions: construct: RRM1-2 (1-163); SELEX round: R2
Description: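 SELEX-seq with GST-tagged IMP3 RRM1-2 (Met1-Asn163) and an N40 RNA pool, round 2. 6-mer enrichment z-score normalised to GST SELEX. RNA written as DNA (T = U).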

IMP3 full-length = IMP3 full-length (UniProt O00425); conditions: construct: FL IMP3 (1-579); SELEX round: R4
Description: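 SELEX-seq with GST-tagged full-length IMP3 and an N40 RNA pool, round 4. Each 6-mer is scored as an enrichment z-score of sequence tags containing it, normalised to the matching GST SELEX round. RNA written as DNA (T = U).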

IMP3 KH1-2 = conditions: construct: KH1-2 (164-376); SELEX round: R4
Description: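 SELEX-seq with GST-tagged IMP3 KH1-2 (Pro164-Phe376) and an N40 RNA pool, round 4 (stringent 300/600 mM KCl washes). 6-mer z-score of sequence-tag enrichment normalised to the corresponding GST SELEX round; RNA k-mers written as DNA (T for U).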

IMP3 KH3-4 = conditions: construct: KH3-4 (377-579); SELEX round: R4
Description: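 SELEX-seq with GST-tagged IMP3 KH3-4 (Pro377-Lys579) and an N40 RNA pool, round 4. 6-mer z-score of sequence-tag enrichment normalised to the corresponding GST SELEX round; RNA k-mers written as DNA (T for U).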

Chain of UniProt O00425 (O00425 whole entry): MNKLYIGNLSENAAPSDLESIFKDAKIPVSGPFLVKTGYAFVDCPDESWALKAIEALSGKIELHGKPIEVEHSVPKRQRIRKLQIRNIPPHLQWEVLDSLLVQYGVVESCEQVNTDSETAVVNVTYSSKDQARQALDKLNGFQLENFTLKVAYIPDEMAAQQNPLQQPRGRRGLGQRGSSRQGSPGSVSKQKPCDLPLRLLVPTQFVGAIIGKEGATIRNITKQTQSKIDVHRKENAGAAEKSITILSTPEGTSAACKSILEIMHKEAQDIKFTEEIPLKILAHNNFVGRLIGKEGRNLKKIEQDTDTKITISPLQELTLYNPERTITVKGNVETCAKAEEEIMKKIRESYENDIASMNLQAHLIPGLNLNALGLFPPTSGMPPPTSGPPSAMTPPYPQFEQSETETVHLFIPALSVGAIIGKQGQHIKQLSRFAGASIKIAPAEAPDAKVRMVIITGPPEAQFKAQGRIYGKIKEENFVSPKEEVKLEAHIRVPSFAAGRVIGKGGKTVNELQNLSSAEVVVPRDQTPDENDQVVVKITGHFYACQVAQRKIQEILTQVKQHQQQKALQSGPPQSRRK
Chain of IMP3 KH1-4 (chain, as listed by the source): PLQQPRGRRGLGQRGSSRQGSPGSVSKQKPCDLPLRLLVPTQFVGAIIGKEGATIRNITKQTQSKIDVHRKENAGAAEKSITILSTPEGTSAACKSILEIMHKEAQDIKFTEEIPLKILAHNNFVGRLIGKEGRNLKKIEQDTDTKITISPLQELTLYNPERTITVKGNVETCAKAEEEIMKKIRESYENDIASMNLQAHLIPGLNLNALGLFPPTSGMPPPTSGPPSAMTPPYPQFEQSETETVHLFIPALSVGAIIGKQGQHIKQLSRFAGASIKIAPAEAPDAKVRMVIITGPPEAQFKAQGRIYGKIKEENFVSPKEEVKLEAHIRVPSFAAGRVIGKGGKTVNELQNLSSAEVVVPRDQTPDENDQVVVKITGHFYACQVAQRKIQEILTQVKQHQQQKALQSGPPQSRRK
Chain of IMP3 RRM1-2 (chain, as listed by the source): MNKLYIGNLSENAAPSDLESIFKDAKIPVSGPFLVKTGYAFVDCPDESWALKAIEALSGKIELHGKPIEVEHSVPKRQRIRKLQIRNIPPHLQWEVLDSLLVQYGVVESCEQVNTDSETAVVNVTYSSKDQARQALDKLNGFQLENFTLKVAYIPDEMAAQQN
Chain of IMP3 KH3-4 (chain, as listed by the source): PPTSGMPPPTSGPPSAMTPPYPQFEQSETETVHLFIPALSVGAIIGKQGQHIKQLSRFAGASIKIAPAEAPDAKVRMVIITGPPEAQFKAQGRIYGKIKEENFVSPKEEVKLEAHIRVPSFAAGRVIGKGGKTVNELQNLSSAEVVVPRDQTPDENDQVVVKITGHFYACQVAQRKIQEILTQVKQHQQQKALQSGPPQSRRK
Chain of IMP3 KH1-2 (chain, as listed by the source): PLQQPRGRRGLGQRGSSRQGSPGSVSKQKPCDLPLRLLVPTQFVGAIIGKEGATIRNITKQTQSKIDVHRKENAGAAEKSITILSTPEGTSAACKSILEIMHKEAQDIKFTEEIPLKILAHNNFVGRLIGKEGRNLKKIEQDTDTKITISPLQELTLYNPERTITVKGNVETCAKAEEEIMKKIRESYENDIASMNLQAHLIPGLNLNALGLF

Sequence | 6-mer SELEX enrichment z-score (IMP3 KH1-4) | 6-mer SELEX enrichment z-score (IMP3 RRM1-2) | 6-mer SELEX enrichment z-score (IMP3 full-length) | 6-mer SELEX enrichment z-score (IMP3 KH1-2) | 6-mer SELEX enrichment z-score (IMP3 KH3-4)
GCCAGT | 0.516 | -0.13 | 0.493 | 0.302 | –
CGTTCG | -0.541 | 0.12 | -0.041 | -0.516 | –
CGGCCC | 0.84 | -0.348 | 1.45 | 0.757 | –
ACGGAA | 0.093 | -1.31 | -0.49 | -0.15 | –
CTTATA | 1.1 | 0.062 | 0.184 | 1.02 | –
AAAGCC | -1.66 | -1.74 | -1.91 | -1.52 | –
GTTCGC | -0.072 | 0.281 | 0.032 | -0.066 | –
CTTGGT | -0.277 | 0.62 | 0.22 | -0.118 | –
TATCTT | 0.279 | 0.453 | 0.136 | 0.296 | –
GGTAGC | -0.414 | 0.246 | 0.077 | -0.323 | –
CAATCC | -0.383 | 0.473 | -0.252 | -0.17 | –
ATGCCA | 0.015 | -0.371 | -0.191 | -0.114 | –
ATGTAA | 0.953 | -0.54 | -0.255 | 0.541 | –
GAGTGA | -0.549 | -0.627 | -0.639 | -0.616 | –
CGCCGG | -0.13 | -0.271 | 0.663 | 0.046 | –
GGCGTC | -0.298 | 0.524 | 0.869 | -0.126 | –
GAGCCC | -1.25 | -1.05 | -0.268 | -0.923 | –
GCCCAT | -0.59 | -0.053 | -0.196 | -0.486 | –
CGGGAC | -0.588 | -0.566 | -0.046 | -0.364 | –
TAATTC | 1.07 | 0.198 | 0.262 | 1.09 | –
TTAGGC | 0.321 | 0.511 | 0.333 | 0.22 | 0.532
AACTCC | -0.684 | -0.714 | -1.12 | -0.448 | -1.23
GAGCGG | -0.906 | -0.129 | 0.391 | -0.727 | –
TGTGCA | 1.01 | 0.142 | 0.315 | 0.582 | –
ATTATT | 1.77 | 0.338 | 0.543 | 1.49 | 2.22
ATAATA | 2.28 | -0.306 | 0.458 | 2.37 | –
GCGCAA | -0.372 | -0.071 | 0.482 | -0.403 | –
GGGGAC | 0.521 | -0.234 | 0.214 | 0.882 | –
AGTAGT | -0.194 | 0.251 | -0.089 | -0.183 | -0.043
ACGTAT | -0.497 | -0.252 | -0.47 | -0.558 | –
